Results on 58 molecules are retold here after PMC4336329 (PLoS ONE, 2015).

In all, about 310,000 compounds went through this assay and about 14,000 (4.5%) showed an effect of 50% or more. The effect is printed as a negative number. This is one part of the list.
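Note: peak tail current of the secondary pulse compared with the same well before compound.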

The target in this experiment is human ether-à-go-go-related gene (hERG) potassium channel (human, UniProt Q12809). As to the kind of experiment: primary screen, population patch clamp on CHO cells stably expressing hERG.
human ether-à-go-go-related gene (hERG) potassium channel, sequence (Q12809 whole entry, looked up): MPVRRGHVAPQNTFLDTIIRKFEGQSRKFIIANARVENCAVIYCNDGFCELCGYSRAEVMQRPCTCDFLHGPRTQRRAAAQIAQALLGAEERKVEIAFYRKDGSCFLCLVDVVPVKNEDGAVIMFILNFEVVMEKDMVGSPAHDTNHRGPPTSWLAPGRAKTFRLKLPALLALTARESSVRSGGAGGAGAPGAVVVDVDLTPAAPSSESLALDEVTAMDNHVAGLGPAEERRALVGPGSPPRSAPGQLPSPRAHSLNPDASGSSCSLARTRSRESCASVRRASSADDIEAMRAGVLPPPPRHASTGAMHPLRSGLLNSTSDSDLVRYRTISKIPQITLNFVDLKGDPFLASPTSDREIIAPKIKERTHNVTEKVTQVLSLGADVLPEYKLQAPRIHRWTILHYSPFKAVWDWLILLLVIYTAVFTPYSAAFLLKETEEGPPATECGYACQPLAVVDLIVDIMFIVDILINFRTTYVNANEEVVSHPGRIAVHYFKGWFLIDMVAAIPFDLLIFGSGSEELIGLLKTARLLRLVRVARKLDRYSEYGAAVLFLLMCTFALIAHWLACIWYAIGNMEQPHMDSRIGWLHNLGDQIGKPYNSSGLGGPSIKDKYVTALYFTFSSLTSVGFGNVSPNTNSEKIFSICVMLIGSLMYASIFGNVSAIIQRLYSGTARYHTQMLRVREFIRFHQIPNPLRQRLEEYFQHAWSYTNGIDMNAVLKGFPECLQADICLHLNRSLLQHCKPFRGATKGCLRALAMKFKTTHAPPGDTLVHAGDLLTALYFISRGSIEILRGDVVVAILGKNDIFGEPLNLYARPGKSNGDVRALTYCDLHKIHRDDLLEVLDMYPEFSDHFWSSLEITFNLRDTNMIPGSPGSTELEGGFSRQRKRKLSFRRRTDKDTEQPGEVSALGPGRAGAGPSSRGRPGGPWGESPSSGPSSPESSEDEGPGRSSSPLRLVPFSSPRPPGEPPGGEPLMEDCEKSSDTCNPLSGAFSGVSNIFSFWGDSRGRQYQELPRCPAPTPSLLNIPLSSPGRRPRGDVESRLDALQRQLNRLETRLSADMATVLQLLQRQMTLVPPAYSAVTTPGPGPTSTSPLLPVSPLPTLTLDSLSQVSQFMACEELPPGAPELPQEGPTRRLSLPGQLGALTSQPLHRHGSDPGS
As for `Cc1cc(S(=O)(=O)N2CCCC2)ccc1OCC(=O)NCc1ccco1`, the “hERG current change (%, negative = inhibition) at 10uM” value was -3.7%. To `Cc1ccc(S(=O)(=O)NC2=NCN(CCc3ccccc3)CN2)cc1` belongs 9.57%; to `[O-][n+]1ccc(C(O)c2ccccc2)cc1` (stereo not shown), 28.6%. `COc1ccc(N2C3=C(C(=O)CC(C)(C)C3)C(c3ccccc3OC)C3=C2CC(C)(C)CC3=O)cc1`: the “hERG current change (%, negative = inhibition) at 10uM” value is listed as -18.9%.

As for `CC(=O)c1ccccc1OCC(O)CNC1CCCC1.Cl` (stereo not shown), the “hERG current change (%, negative = inhibition) at 10uM” value is listed as 9.51%. Next, `CCNC(=O)NC(=O)C(C)OC(=O)c1c(C)nn(Cc2ccccc2Cl)c1Cl` (stereo not shown): -9.3%. To `O=C(CSc1nc2nn(-c3ccccc3)c(=O)c-2c2n1CCCCC2)Nc1ccc(F)cc1F` belongs -63.2%. As to `c1ccc2c(Nc3ccc4c(c3)OCCO4)c3c(nc2c1)CCCC3`, the “hERG current change (%, negative = inhibition) at 10uM” value was -92.4%.

In the case of `COc1ccccc1C(=O)Nc1ccc2c(c1)n(C)c(=O)n2C`, the “hERG current change (%, negative = inhibition) at 10uM” value worked out at 5.85%. Next, `O=C(NC(=S)Nc1ccc2cn[nH]c2c1)c1ccccc1`: -2.32%; `COc1ccc(C)cc1NC(=O)NC1CCN(Cc2ccccc2)CC1`: -31.4%. With `Cn1c(=O)c2c(nc(Cc3ccc(N)cc3)n2C)n(C)c1=O`, the “hERG current change (%, negative = inhibition) at 10uM” value is 16.3%. To `CCc1ccc2[nH]c3nc(N/N=C/c4ccc(O)cc4O)nnc3c2c1` belongs 3.31%.

`Cc1cc(N2CCCC(C(=O)Nc3ccc4c(c3)CCC4)C2)n2ncnc2n1` (stereo not shown): the “hERG current change (%, negative = inhibition) at 10uM” value is recorded as -57.2%.

On to `CCn1nc(C)c(NC(=O)CSc2nnc(-c3ccco3)n2C)c1C`, for which the “hERG current change (%, negative = inhibition) at 10uM” value was 0.23%. To `CC(C)Cn1c(=O)c2sccc2n2c(CCCC(=O)NC3CCN(Cc4ccccc4)CC3)nnc12` belongs -30.6%; to `C=CCN1C=CC(=CC=C(C#N)C#N)C=C1`, -0.0616%. Next, `Cc1cc(C)cc(N(CC(=O)Nc2ccccc2C(=O)N2CCOCC2)S(C)(=O)=O)c1`: 0.143%; `COc1cc(C#N)ccc1OCC(=O)NCCC1=CCCCC1`: -13.2%; `CC1CCN(C(=S)c2ccc(O)cc2)CC1`: -14.1%. With `O=C(Nc1ccccc1)N1CCCCC1c1cccnc1` (stereo not shown), the “hERG current change (%, negative = inhibition) at 10uM” value is -1.03%. Next, `O=c1[nH]c(CSc2ncc(-c3ccc(F)cc3)n2Cc2ccco2)nc2ccccc12`: -8.9%; `COc1cccc(C(=O)NCCOc2cc(C)cc(C)c2)c1`: -9.93%. To `O=C1c2ccsc2SCCN1Cc1ccccc1` belongs -7.08%; to `C/C(=N/NC(=O)OC(C)(C)C)c1ccco1`, 5.72%. For `Cc1ccc(CNCc2cc3c(C(C)(C)C)nn(-c4ccccc4)c3[nH]c2=O)cc1`, the “hERG current change (%, negative = inhibition) at 10uM” value was -8.46%.

Regarding `CCCCn1c(N)c(N(CC(C)C)C(=O)CC2OC(=O)c3ccccc32)c(=O)[nH]c1=O` (stereo not shown), the “hERG current change (%, negative = inhibition) at 10uM” value turned out to be 1.76%.

Consider `CCOC(=O)c1cnc(SC)nc1Oc1cccc(NC(=O)c2ccc(Cl)cc2)c1`, for which the “hERG current change (%, negative = inhibition) at 10uM” value is 5.09%. To `O=C(CCNS(=O)(=O)c1ccccc1)OCc1nnc(-c2ccccc2)o1` belongs 2.89%; to `CC(CC(=O)OCC(=O)NCc1ccc(Cl)cc1)c1ccccc1` (stereo not shown), -7.65%.

Regarding `NC(=O)C1(N2CCCCC2)CCN(C2CC(=O)N(Cc3ccc(N4CCCC4=O)cc3)C2=O)CC1` (stereo not shown), the “hERG current change (%, negative = inhibition) at 10uM” value is 5.32%. Next, `O=S(=O)(NCCC1=CCCCC1)c1cccc(Br)c1`: 5.16%. To `CC1=C(C(=O)OC(C)C)C(c2cccc(F)c2)N2C(=O)C(C)SC2=N1` (stereo not shown) belongs -0.466%; to `O=C(O)c1ccc(N=Cc2c(O)[nH]c(=O)[nH]c2=O)cc1`, 8.59%. To `O=C(c1cc(Cl)c(=O)n(Cc2ccccc2)c1)N1CCOCC1` belongs -5.85%; to `COC(=O)c1c(NC(=S)Nc2ccc(C(=O)N3CCOCC3)cc2)sc2c1CCC2`, 12.2%.

In the case of `CC(C)(C)NC(=O)NC(=O)COC(=O)C1c2ccccc2Oc2ccccc21`, the “hERG current change (%, negative = inhibition) at 10uM” value is -13.8%. To `Cc1ccc(O)c(-c2cc(-c3ccccc3F)[nH]n2)c1` belongs 10.3%.

For `O=C(Cc1c(F)cccc1Cl)Nc1ccccc1N1CCCCC1`, the “hERG current change (%, negative = inhibition) at 10uM” value is on record as 27.5%. As for `O=c1[nH]c(NCCO)c(N=Cc2ccccc2)c(=O)[nH]1`, the “hERG current change (%, negative = inhibition) at 10uM” value came out at 31.2%.

As to `COc1ccc(N2C(=O)CCC(C(=O)NCc3ccccn3)C2c2ccc(F)cc2)cc1` (stereo not shown), the “hERG current change (%, negative = inhibition) at 10uM” value is given as 5.29%. To `Cc1ccc(OCC(=O)NCCCNC(=O)c2cccnc2)cc1` belongs -0.212%. Next, `CN(c1ccccc1C(=O)N1CCN(Cc2ccc3c(c2)OCO3)CC1)S(C)(=O)=O`: 3.14%; `Nc1nonc1-n1nnc(C(=O)N/N=C/c2ccoc2)c1-c1ccccc1`: 3.2%; `CCOc1ccc(NC(=O)CCC(=O)N/N=C(\C)c2cccs2)cc1`: 14.3%.

As for `CCOC(=O)Cc1csc(NC(=O)c2cc3c(s2)CCCC3)n1`, the “hERG current change (%, negative = inhibition) at 10uM” value is recorded as -29.2%.

On to `CCOC(=O)NC(=O)/C(C#N)=C(/C)N(C)C`, for which the “hERG current change (%, negative = inhibition) at 10uM” value is recorded as 17.3%. Next, `O=C1CS/C(=C/C(=O)c2ccccc2)N1`: 6.37%. Consider `CS(=O)(=O)N(Cc1ccc(Cl)cc1)c1ccc(C(=O)Nc2cccnc2)cc1`, for which the “hERG current change (%, negative = inhibition) at 10uM” value is given as -37.4%. Next, `Cc1nc(NC(=O)C2CC3CCCC(C2)C3=O)sc1C` (stereo not shown): 0.188%. `Cc1ccc(S(=O)(=O)N2CCOCC2)cc1C(=O)NC1CCCCCC1`: the “hERG current change (%, negative = inhibition) at 10uM” value turned out to be 2.72%.

On to `CC(C)N1CCC(N2CCN(CC#Cc3ccccc3)CC2CCO)CC1` (stereo not shown), for which the “hERG current change (%, negative = inhibition) at 10uM” value worked out at 0.615%. As to `CN(C)c1ccc(/C=N/n2ncc3ccccc32)cc1`, the “hERG current change (%, negative = inhibition) at 10uM” value is 0.149%. Next, `O=C(Cc1cccs1)Nc1ccc(C(=O)O)cc1`: -0.374%; `CCN(Cc1ccccc1)C(=O)Cn1cnc2c1c(=O)n(C)c(=O)n2C`: -16.1%.

As to `N#CC1=C(N)OC(c2ccccc2)=C(C#N)C1c1ccc2c(c1)OCO2` (stereo not shown), the “hERG current change (%, negative = inhibition) at 10uM” value was determined as 14.3%. Next, `CC(NC(=O)COC(=O)Cc1ccccc1[N+](=O)[O-])c1ccccc1` (stereo not shown): 15.9%; `Br.N=C(N)SCCc1cccc(CCSC(=N)N)c1`: 0.563%.
